Structures can show the parent of a compound that is named as a salt. ± gives the standard deviation of the averaged measurements. In all, about 2,000 compounds were measured (“relative cell viability vs DMSO, compound alone”: median about 1.1, lowest 2% from about 0.29 on). The list shows a part of the results.

In the assay the test system is TE10. Put plainly: relative cell viability vs DMSO, compound alone (fraction); TE10 is an esophageal squamous carcinoma line; higher = less cytotoxic. The conditions noted are these: 2 µM; 48 h. How it is done: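 TE10 ESCC cells (1,000/well, 384-well plates) were treated with Selleck bioactive library compounds at 2 uM alone for 48 h. Viability was read by CellTiter-Glo and expressed relative to DMSO wells. Two technical replicates (A, B).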
`OC[C@H]1O[C@@H](Oc2ccc(O)cc2)[C@H](O)[C@@H](O)[C@@H]1O` [Arbutin] displayed a relative cell viability of 1.14 ± 0.043.
Consider `CNc1nc(Nc2cnn(C3CCN(C4COC4)CC3F)c2Cl)ncc1C(F)(F)F` (stereo unspecified), for which the relative cell viability is 1.12 ± 0.037.
As for `Nc1ccc(C(=O)NCC(=O)O)cc1` [4-Aminohippuric Acid], the relative cell viability worked out at 1.15 ± 0.05.
With `COc1ccc(NS(=O)(=O)c2ccc(N)cc2)nn1` [Sulfamethoxypyridazine], the relative cell viability came out at 1.131 ± 0.0024.
In turn, `CCCC(=O)O[C@]1(C(=O)COC(C)=O)CC[C@H]2[C@@H]3C[C@H](F)C4=CC(=O)C=C[C@]4(C)[C@@]3(F)[C@@H](O)C[C@@]21C` [Difluprednate] yielded a relative cell viability of 0.948 ± 0.066.
Turning to `CN(NC(=O)CC(=O)NN(C)C(=S)c1ccccc1)C(=S)c1ccccc1` [Elesclomol (STA-4783)], the relative cell viability amounted to 0.181 ± 0.013.
With `CO[C@@H]1[C@@H](OC(N)=O)[C@@H](O)[C@H](Oc2ccc3c(O)c(NC(=O)c4ccc(O)c(CC=C(C)C)c4)c(=O)oc3c2C)OC1(C)C` [Novobiocin Sodium] the figure was 0.907 ± 0.039.
Compound `O=Nc1c(-c2c(O)[nH]c3cc(Br)ccc23)[nH]c2ccccc12` returned a relative cell viability of 1.16 ± 0.016.
With `CCN1CCN(C(=O)N[C@@H](C(=O)N[C@@H]2C(=O)N3[C@@H]2SC(C)(C)[C@@H]3C(=O)O)c2ccccc2)C(=O)C1=O` [Piperacillin Sodium] the figure was 1.13 ± 0.095; with `CN(C)CCC[C@@]1(c2ccc(F)cc2)OCc2cc(C#N)ccc21` [Escitalopram Oxalate], 1.15 ± 0.066; with `CCCC(=O)Nc1ncnc2c1ncn2[C@@H]1O[C@@H]2COP(=O)(O)O[C@H]2[C@H]1OC(=O)CCC` [Dibutyryl-cAMP (Bucladesine)], 1.13 ± 0.012.
The value for `CC1=CC(=O)NS(=O)(=O)O1` [Acesulfame Potassium] was 1.21 ± 0.061; that for `CN1CCCC(n2nc(Cc3ccc(Cl)cc3)c3ccccc3c2=O)CC1` (stereo unspecified) [Azelastine HCl] was 1.07 ± 0.12; that for `O=C(c1ccc(F)cc1)N1CCCC(c2nc(-c3ccc(F)cc3)no2)C1` (stereo unspecified) was 1.14 ± 0.017.
The value for `CC(=O)OCOC(=O)CN(CC(=O)OCOC(C)=O)c1ccccc1OCCOc1ccccc1N(CC(=O)OCOC(C)=O)CC(=O)OCOC(C)=O` was 0.946 ± 0.031.
In turn, `NC(=O)N/N=C/c1ccc([N+](=O)[O-])o1` [Nitrofural] yielded a relative cell viability of 1.02 ± 0.057.
In turn, `O=C(O[C@H]1CN2CCC1CC2)N1CCc2ccccc2[C@@H]1c1ccccc1` [Solifenacin succinate] had a relative cell viability of 1.103 ± 0.01.
Turning to `CC(C)C[C@H](NC(=O)[C@H](CCc1ccccc1)NC(=O)CN1CCOCC1)C(=O)N[C@@H](Cc1ccccc1)C(=O)N[C@@H](CC(C)C)C(=O)[C@@]1(C)CO1` [Carfilzomib (PR-171)], the relative cell viability came to 0.0894 ± 0.0027.
`O=S(=O)(c1ccccc1)c1cnc2c(N3CCNCC3)cccc2c1`: the relative cell viability amounted to 1.1 ± 0.012.
`COc1ccc(-n2c(C)c([N+](=O)[O-])c3ccc(O)cc32)cc1` registered a relative cell viability of 1.03 ± 0.012.
With `CN(C)Cc1cccc(N=C(c2ccccc2)c2c(O)[nH]c3cc(C(N)=O)ccc23)c1` the figure was 0.925 ± 0.059; with `O=C(N/N=C/c1ccc(O)c(O)c1)c1cc2ccccc2cc1O` [Dynasore], 1.01 ± 0.079.
The value for `C=CC[C@@H]1/C=C(\C)C[C@H](C)C[C@H](OC)[C@H]2O[C@@](O)(C(=O)C(=O)N3CCCC[C@H]3C(=O)O[C@H](/C(C)=C/[C@@H]3CC[C@@H](O)[C@H](OC)C3)[C@H](C)[C@@H](O)CC1=O)[C@H](C)C[C@@H]2OC` [Tacrolimus (FK506)] was 1.08 ± 0.02; that for `O=C([O-])c1ccccc1O.[Na+]` [Sodium salicylate] was 1.16 ± 0.02.
As for `COc1ccc2[nH]cc(CCNC(C)=O)c2c1` [Melatonin], the relative cell viability was 1.01 ± 0.23.
The value for `Cc1ccc(C(=O)c2cc(O)c(O)c([N+](=O)[O-])c2)cc1` [Tolcapone] was 0.978 ± 0.019; that for `Cc1cc([N+](=O)[O-])ccc1NS(=O)(=O)c1cc(Cl)ccc1Cl` was 0.988 ± 0.0067.
For `COc1ccc(COc2ccc(Cc3cnc(N)nc3N)cc2OC)cc1`, the relative cell viability was 1.08 ± 0.074.
The value for `O=C(O)CCNc1cc(N2CCc3ccccc3CC2)nc(-c2ccccn2)n1` was 1.17 ± 0.1.
As for `CCN(Cc1ccncc1)C(=O)C(CO)c1ccccc1` (stereo unspecified) [Tropicamide], the relative cell viability came to 1.09 ± 0.017.
With `CC(=O)O/N=C1\C(=O)N(Cc2cc(Cl)ccc2Cl)c2ccc(Cl)cc21` the figure was 1.04 ± 0.049; with `Cc1ncc([N+](=O)[O-])n1CCO` [Metronidazole], 1.08 ± 0.032.
As for `O=C(Cc1cccc(OC(F)(F)F)c1)Nc1ccc(CCCCc2nnc(NC(=O)Cc3ccccn3)s2)nn1`, the relative cell viability was determined as 0.753 ± 0.15.
`CCN(CC)CC#CCOC(=O)C(O)(c1ccccc1)C1CCCCC1` (stereo unspecified) [Oxybutynin chloride] came in with a relative cell viability of 1.15 ± 0.056.
The value for `CCN(CC)CC#CCOC(=O)C(O)(c1ccccc1)C1CCCCC1` (stereo unspecified) [Oxybutynin] was 1 ± 0.089; that for `O=C(CCCN1CC=C(n2c(=O)[nH]c3ccccc32)CC1)c1ccc(F)cc1` [Droperidol] was 1.08 ± 0.044.
The value for `CCO[C@@H]1OC(=O)C[C@@H]1NC(=O)[C@@H]1CCCN1C(=O)[C@@H](NC(=O)c1ccc(N)c(Cl)c1)C(C)(C)C` was 1.11 ± 0.067; that for `CN(C)c1ccc(C(=O)NCCCCCCC(=O)NO)cc1` was 0.627 ± 0.043.
With `C[C@H]1[C@@H](O)O[C@@H]2O[C@@]3(C)CC[C@H]4[C@H](C)CC[C@@H]1[C@@]24OO3` [Dihydroartemisinin (DHA)] the figure was 0.646 ± 0.18; with `COc1ccc(-c2oc3c(CC=C(C)C)c(O[C@@H]4O[C@H](CO)[C@@H](O)[C@H](O)[C@H]4O)cc(O)c3c(=O)c2O[C@@H]2O[C@@H](C)[C@H](O)[C@@H](O)[C@H]2O)cc1` [Icariin], 1.06 ± 0.039.
In the case of `CCn1cc(C(=O)O)c(=O)c2ccc(C)nc21` [Nalidixic acid], the relative cell viability was 1.11 ± 0.052.
With `COc1ccc2cc(CCC(C)=O)ccc2c1` [Nabumetone] the figure was 1.09 ± 0.037; with `Cc1ccc(S(=O)(=O)NC(=O)NN2CC3CCCC3C2)cc1` (stereo unspecified) [Gliclazide], 1.13 ± 0.005.
The value for `Cc1cc(Cn2cnc3c2CC(C(=O)O)N(C(=O)C(c2ccccc2)c2ccccc2)C3)ccc1N(C)C` (stereo unspecified) was 1.15 ± 0.044.
With `O=C(Nc1cc(C(F)(F)F)ccc1N1CCCCC1)c1ccncc1` the figure was 1.16 ± 0.077; with `Cc1ccc(NC(=O)c2ccc(CN3CCN(C)CC3)cc2)cc1Nc1nc(-c2cccnc2)cs1` [Masitinib (AB1010)], 1.084 ± 0.0069.
Compound `COc1nc(C)nc(Cl)c1NC1=NCCN1` [Moxonidine] gave a relative cell viability of 0.997 ± 0.12.
With `CCCC[C@@H](C=O)NC(=O)[C@H](CC(C)C)NC(=O)OCc1ccccc1` [Calpeptin] the figure was 1 ± 0.021; with `Clc1ccc(C(Cn2ccnc2)OCc2c(Cl)cccc2Cl)c(Cl)c1` (stereo unspecified) [Isoconazole nitrate], 0.991 ± 0.011; with `C=CC(=O)N1CCN(C(=O)CNc2cc(I)c(Cl)cc2O)CC1` [K-Ras(G12C) inhibitor 12], 1.15 ± 0.067.
The value for `NC(=O)N1c2ccccc2C=Cc2ccccc21` [Carbamazepine] was 1.02 ± 0.016.
In turn, `CC(C)n1nc(-c2cc3cc(O)ccc3[nH]2)c2c(N)ncnc21` registered a relative cell viability of 0.624 ± 0.022.
With `O=c1ncccn1[C@@H]1O[C@H](CO)[C@@H](O)[C@H]1O` [Zebularine] the figure was 1.01 ± 0.023.
With `O=C(CCCCCCNC(=O)c1cnc(N(c2ccccc2)c2ccccc2)nc1)NO` [Rocilinostat (ACY-1215)] the figure was 0.866 ± 0.01; with `NC(CO)(CO)CO` [Trometamol], 1.14 ± 0.028.
Regarding `C[C@@H](N)[C@H]1CC[C@H](C(=O)Nc2ccncc2)CC1`, the relative cell viability was found to be 1.06 ± 0.02.
Regarding `O=c1cc(-c2ccc(O)cc2)oc2cc(O)cc(O)c12` [Apigenin], the relative cell viability worked out at 1.07 ± 0.066.
With `O=C1CN2Cc3c(ccc(Cl)c3Cl)N=C2N1` [Anagrelide HCl] the figure was 1.1 ± 0.055.
For `CC(C)NCC(O)COc1ccc(COCCOC(C)C)cc1` (stereo unspecified) [Bisoprolol fumarate], the relative cell viability is 1.03 ± 0.083.
The value for `COc1ccc(-c2cc(=O)c3c(O)cc(O)cc3o2)cc1O` [Diosmetin] was 1.04 ± 0.14; that for `CN1CC[C@H](c2c(O)cc(O)c3c(=O)cc(-c4ccccc4Cl)oc23)[C@H](O)C1` [Flavopiridol HCl] was 0.293 ± 0.03; that for `CN1CC[C@H](c2c(O)cc(O)c3c(=O)cc(-c4ccccc4Cl)oc23)[C@H](O)C1` [Flavopiridol (Alvocidib)] was 0.228 ± 0.055.
The value for `Nc1nc(Cl)nc2c1ncn2[C@@H]1O[C@H](CO)[C@@H](O)[C@@H]1F` [Clofarabine] was 0.932 ± 0.038; that for `O=C(NCCS(=O)(=O)c1ccc(C(F)(F)F)cn1)c1ccc(Cl)cc1` was 1.08 ± 0.018.
The compound `C=C1CC[C@H](O)C/C1=C/C=C1\CCC[C@]2(C)[C@@H]([C@H](C)CCCC(C)(C)O)CC[C@@H]12` [Calcifediol] showed a relative cell viability of 1.01 ± 0.016.
`CC(C)CC(=O)Nc1n[nH]c2c1CN(C(=O)C1CCN(C)CC1)C2(C)C` displayed a relative cell viability of 0.721 ± 0.1.
The value for `CC(=O)N1c2ccc(-c3ccc(C(=O)O)cc3)cc2[C@H](Nc2ccc(Cl)cc2)C[C@@H]1C` was 0.619 ± 0.033; that for `CC[C@H]1OC(=O)[C@H](C)[C@@H](O[C@H]2C[C@@](C)(OC)[C@@H](O)[C@H](C)O2)[C@H](C)[C@@H](O[C@@H]2O[C@H](C)C[C@H](N(C)C)[C@H]2O)[C@](C)(O)C[C@@H](C)/C(=N\OCOCCOC)[C@H](C)[C@@H](O)[C@]1(C)O` [Roxithromycin] was 1.14 ± 0.014.
As to `Nc1nc(F)nc2c1ncn2[C@@H]1O[C@H](CO)[C@@H](O)[C@@H]1O` [Fludarabine], the relative cell viability was 0.291 ± 0.0055.
Consider `CCOC(=O)[C@H](CCc1ccccc1)N[C@H]1CCc2ccccc2N(CC(=O)O)C1=O` [Benazepril HCl], for which the relative cell viability is 1.047 ± 0.0035.
With `O=C(Nc1c[nH]nc1-c1nc2ccc(CN3CCOCC3)cc2[nH]1)NC1CC1` the figure was 0.811 ± 0.14; with `COC1=C(OC)C(=O)C(CCCCCCCCCCO)=C(C)C1=O` [Idebenone], 1.04 ± 0.064; with `Cc1nc(NC(=O)N2CCC[C@H]2C(N)=O)sc1-c1csc(C(C)(C)C)n1`, 0.751 ± 0.027.
The value for `O=C(Nc1cccc2c(=O)cc(-c3nnn[nH]3)oc12)c1ccc(OCCCCc2ccccc2)cc1` [Pranlukast] was 0.943 ± 0.027; that for `CC(C)(C)NC[C@H](O)COc1nsnc1N1CCOCC1` [Timolol Maleate] was 1.1 ± 0.043; that for `COc1cc(OC)c2c(=O)[nH]c(-c3cc(C)c(OCCO)c(C)c3)nc2c1` was 0.8141 ± 0.0068.

For the origin of these results see the supplement of paper PMC10670038.
